# Assay results reported in the supplement of paper PMC10037445.
# In all, about 2,900 compounds were measured (“NF-kB SEAP reporter activity, fold change vs agonist alone”: median about 0.99, highest 2% from about 2.6 on). This is one part of the list.
# Legend:
# [1] = system: RAW-Dual; assay: NF-kB SEAP reporter activity, fold change vs agonist alone; higher = enhanced NF-kB activity; settings: library stock concentration (final ~1000-fold dilution): 10 mM, cytotoxicity flag (confluency mask): not cytotoxic
# Summary of the method: (§1)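 Library stock was pin-tooled at 50 nL into 384-well plates of RAW-Dual macrophages (50,000 cells/well, DMEM), followed 1 h later by a PRR agonist, and the cells were kept at 37 °C, 5% CO2. Supernatant collected after 20 hours was read for IRF by QuantiLuc luminescence and for NF-κB by QuantiBlue absorbance at 620 nm. Reporter activity is fold change over agonist-alone wells, and a well counted as cytotoxic when its IncuCyte confluency was below 70% of agonist controls in both mask sets.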
# [2] = system: RAW-Dual; assay: NF-kB SEAP reporter activity, fold change vs agonist alone; cytotoxicity flag (confluency mask): not cytotoxic; higher = enhanced NF-kB activity
# Summary of the method: as §1
# [3] = agonist: ODN 1826 (TLR9) 0.5 ug/mL
# [4] = agonist: Pam2CSK4 (TLR2/6) 0.1 ug/mL
# [5] = agonist: Pam3CSK4 (TLR2/1) 0.1 ug/mL
smiles,measurement,setting,value
COc1ccc2c(c1)[nH]c1c(C)nccc12.Cl,NF-kB SEAP reporter activity,[1]; agonist: Imiquimod (TLR7) […],1.04
same,NF-kB SEAP reporter activity,[1]; agonist: MPLA (TLR4) […],1.02
COc1ccc2c(c1)[nH]c1c(C)nccc12.Cl (library stock concentration (final ~1000-fold dilution): 10 mM),NF-kB SEAP reporter activity,[2]; agonist: LPS (TLR4) 0.1 ug/mL,0.816
same,NF-kB SEAP reporter activity,[2]; [3],0.207
same,NF-kB SEAP reporter activity,[2]; [4],0.95
same,NF-kB SEAP reporter activity,[2]; [5],0.698
C[N+]1(C)C2CC(OC(=O)C(CO)c3ccccc3)CC1C1OC12 (configuration not stated) (library stock concentration (final ~1000-fold dilution): 10 mM),NF-kB SEAP reporter activity,[2]; agonist: LPS (TLR4) 0.1 ug/mL,1.01
same,NF-kB SEAP reporter activity,[2]; [3],1.13
same,NF-kB SEAP reporter activity,[2]; [4],1.27
same,NF-kB SEAP reporter activity,[2]; [5],1.19
C[N+]1(C)C2CC(OC(=O)C(CO)c3ccccc3)CC1C1OC12 (configuration not stated),NF-kB SEAP reporter activity,[1]; agonist: Imiquimod (TLR7) […],1.03
same,NF-kB SEAP reporter activity,[1]; agonist: MPLA (TLR4) […],1.08
CC(=O)OC1CCC2(C)C(=CCC3C4CCC(=O)C4(C)CCC32)C1 (configuration not stated) (library stock concentration (final ~1000-fold dilution): 10 mM),NF-kB SEAP reporter activity,[2]; agonist: LPS (TLR4) 0.1 ug/mL,2.05
same,NF-kB SEAP reporter activity,[2]; [3],0.966
same,NF-kB SEAP reporter activity,[2]; [4],1.24
same,NF-kB SEAP reporter activity,[2]; [5],0.768
CC(=O)OC1CCC2(C)C(=CCC3C4CCC(=O)C4(C)CCC32)C1 (configuration not stated),NF-kB SEAP reporter activity,[1]; agonist: MPLA (TLR4) […],1.03
Br.CN1C2CC(OC(=O)C(CO)c3ccccc3)CC1C(O)C2 (configuration not stated),NF-kB SEAP reporter activity,[1]; agonist: Imiquimod (TLR7) […],0.843
same,NF-kB SEAP reporter activity,[1]; agonist: MPLA (TLR4) […],0.949
Br.CN1C2CC(OC(=O)C(CO)c3ccccc3)CC1C(O)C2 (configuration not stated) (library stock concentration (final ~1000-fold dilution): 10 mM),NF-kB SEAP reporter activity,[2]; agonist: LPS (TLR4) 0.1 ug/mL,1.11
same,NF-kB SEAP reporter activity,[2]; [3],1.01
same,NF-kB SEAP reporter activity,[2]; [4],1.08
same,NF-kB SEAP reporter activity,[2]; [5],1.73
CCC12C=CCN3CCC4(C(=C(C(=O)OC)C1)Nc1ccccc14)C32.Cl (configuration not stated),NF-kB SEAP reporter activity,[1]; agonist: MPLA (TLR4) […],1.31
CCC12C=CCN3CCC4(C(=C(C(=O)OC)C1)Nc1ccccc14)C32.Cl (configuration not stated) (library stock concentration (final ~1000-fold dilution): 10 mM),NF-kB SEAP reporter activity,[2]; agonist: LPS (TLR4) 0.1 ug/mL,1.38
same,NF-kB SEAP reporter activity,[2]; [3],0.924
same,NF-kB SEAP reporter activity,[2]; [4],0.947
same,NF-kB SEAP reporter activity,[2]; [5],1.17
C1CCc2nnnn2CC1 (library stock concentration (final ~1000-fold dilution): 10 mM),NF-kB SEAP reporter activity,[2]; agonist: LPS (TLR4) 0.1 ug/mL,0.992
same,NF-kB SEAP reporter activity,[2]; [3],0.982
same,NF-kB SEAP reporter activity,[2]; [4],1.02
same,NF-kB SEAP reporter activity,[2]; [5],1.02
C1CCc2nnnn2CC1,NF-kB SEAP reporter activity,[1]; agonist: Imiquimod (TLR7) […],0.914
same,NF-kB SEAP reporter activity,[1]; agonist: MPLA (TLR4) […],1.05
C=CCN1CC(C(=O)N(CCCN(C)C)C(=O)NCC)CC2c3cccc4[nH]cc(c34)CC21 (configuration not stated),NF-kB SEAP reporter activity,[1]; agonist: Imiquimod (TLR7) […],1.26
same,NF-kB SEAP reporter activity,[1]; agonist: MPLA (TLR4) […],1.42
C=CCN1CC(C(=O)N(CCCN(C)C)C(=O)NCC)CC2c3cccc4[nH]cc(c34)CC21 (configuration not stated) (library stock concentration (final ~1000-fold dilution): 10 mM),NF-kB SEAP reporter activity,[2]; agonist: LPS (TLR4) 0.1 ug/mL,1.04
same,NF-kB SEAP reporter activity,[2]; [3],0.182
same,NF-kB SEAP reporter activity,[2]; [4],0.988
same,NF-kB SEAP reporter activity,[2]; [5],0.809
CC[C@H]1CN2CC[C@]3(C(=O)Nc4ccccc43)[C@@H]2C[C@@H]1/C(=C\OC)C(=O)OC,NF-kB SEAP reporter activity,[1]; agonist: Imiquimod (TLR7) […],0.86
same,NF-kB SEAP reporter activity,[1]; agonist: MPLA (TLR4) […],1.04
CC[C@H]1CN2CC[C@]3(C(=O)Nc4ccccc43)[C@@H]2C[C@@H]1/C(=C\OC)C(=O)OC (library stock concentration (final ~1000-fold dilution): 10 mM),NF-kB SEAP reporter activity,[2]; agonist: LPS (TLR4) 0.1 ug/mL,1.21
same,NF-kB SEAP reporter activity,[2]; [3],1.05
same,NF-kB SEAP reporter activity,[2]; [4],0.949
same,NF-kB SEAP reporter activity,[2]; [5],1.03
COC1=CC2C3Cc4ccc(OC)c(O)c4C2(CCN3C)CC1=O.Cl (configuration not stated) (library stock concentration (final ~1000-fold dilution): 10 mM),NF-kB SEAP reporter activity,[2]; agonist: LPS (TLR4) 0.1 ug/mL,0.877
same,NF-kB SEAP reporter activity,[2]; [3],0.884
same,NF-kB SEAP reporter activity,[2]; [4],1.16
same,NF-kB SEAP reporter activity,[2]; [5],1.09
COC1=CC2C3Cc4ccc(OC)c(O)c4C2(CCN3C)CC1=O.Cl (configuration not stated),NF-kB SEAP reporter activity,[1]; agonist: Imiquimod (TLR7) […],0.858
same,NF-kB SEAP reporter activity,[1]; agonist: MPLA (TLR4) […],0.999
